Reference: the RNAGym collection of RNA variant scans (doi:10.1093/nar/gkz1192)
Read counts are not given, so values of variants with three or more changes are uncertain.

B1: CPEB3 Ribozyme (parent)
chain: UAACAGGGGGCCACAGCAGAAGCGUUCACGUCGCAGCCCCUGUCAGAUUCUGGUGAAUCUGCGAAUUCUGCUGUAUAUCUC

Variants of: B1
Experiment: self-cleavage, relative activity (ratio to wild type); higher = more cleavage; in vitro, sequencing
Method in brief: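 CPEB3 self-cleaving ribozyme mutant libraries were made by rounds of error-prone PCR, barcoded, and transcribed in vitro with T7 RNA polymerase for 5 hours at 37°C. Cleavage occurred during transcription and a 15 min DNase I step before EDTA stop. RNAs were reverse transcribed with template switching and Illumina-sequenced, with DNA sequencing mapping barcodes to variants. Relative activity is the variant's cleaved/total read fraction divided by wild type's (minimum 5 reads), averaged across three batches.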

| Variant | self-cleavage |
| --- | --- |
| UAGCAGGGGGCCACAGCAGAAGCGUUCACGUCGCAGCCCCUGUCAGAUUCUGGUGAAUCUGCGAAUUCUGCUGUACAACUC [A3G U76C U78A] | 1.19 |
| UAGCAGGGGGCCACAGCAGAAGCGUUCACGUCGCAGCCCCUGUCAGAUUCUGGUGAAUCUGCGAAUUCUGCUGUACACCUC [A3G U76C U78C] | 0.92 |
| UAUCCGGGGGCCGCAGCAGAAGCGUUCACGCCGCAGCCCCUGUCAGACUCUGGUGAAUCUGCGAAUUCUGCUGAAUAUUUC [A3U A5C A13G U31C U48C U74A C79U] | 0.27 |
| UAUCCGGGGGCCACAGCAGAAGCGUUCACGUCGCAGCGCCUGUCUGAUCCUGGUGAAUCUGCGAAUUCUGCUGUAUAUCUC [A3U A5C C38G A45U U49C] | 0.15 |
| UAUCCGGGGGCCACAGCAGAAGCGUUCACAUCGCAGCCCCUGUCAGAUUCUGGUGAAUCUGCGAAUUCUGCCGUAUAUCUC [A3U A5C G30A U72C] | 0.17 |
| UAUCGGGGGGCCACUGCAGAAGCGUUCACGUCGUAGCCCCUGUCAGAUUCUGUCGAAUCUGCGAAUUCUCCUGUAUAUCUC [A3U A5G A15U C34U G53U U54C G70C] | 0.05 |
| UAUCGGGGGGCCACAGCGGAAGCGUUCGCGUCGCAGCCCCUGUCAGAUUCUGGUGAAUCUGCGAAUUCUGCAGUAUAUCUC [A3U A5G A18G A28G U72A] | 0.31 |
| UAUCGGGGGGCCACAGCAGUAGGGUACACGUCGCAGCCCCUGUCAGAUUCUGGUGAAUCUGCGAAUUCUGCUGUAUAUCUC [A3U A5G A20U C23G U26A] | 0.48 |
| UAUCGGGGGGCCACAGCAGAAGCGUUCACGUCGCGGUCCCUGUCAGAUUCUGGUGAAUCUGCGAUUUCUGCCGUAUAUCUC [A3U A5G A35G C37U A65U U72C] | 0.32 |
| UAUCGGGGGGCCACAGCAGAAGCGUUCACGUCGCAGCCCCUGUCAGAUUCUGGUGGAUCCGCGAAUUCUGCUGUAUAUCUC [A3U A5G A56G U60C] | 0.05 |
| UAUCGGGGGGCCACAGCAGAAGCGUUCACGUCGCAGCCGCUGUCAGAUUCUGGUGAAUCUGCGAAUACUGCUGUAUAUCUC [A3U A5G C39G U67A] | 0.21 |
| UAUCGGCGAGCCACAGCAGAAGCGUUCACGUCGCAGCCCCCGUCAGAUUCUGGUGAAUCUGCGAAUUCUGCUGUGUAUCUC [A3U A5G G7C G9A U41C A75G] | 0.51 |
| UAUCGGUGGGCCACAGCGGAAGCGUUCUCGUCGCAGCCCCUGUCGGAUUCUGGUGAAUCUGCGAGUUCUGCUGUAUAUCUC [A3U A5G G7U A18G A28U A45G A65G] | 0.3 |
| UAUCGGUGGGCCACAGCUGAAGCGUUCACGCCGCUGCCCCUGUCAGAUACUGGUGAAUCUGCGAAUUCUGCUGUAUAUCUC [A3U A5G G7U A18U U31C A35U U49A] | 0.06 |
| UAUCGGGGGGCCACAGCAGAAGCGAUCACGUCGCAGCCCCUGUCAGAUUCUGGUGAGUCUGCGAAUUCUGCUGUAUAUCUC [A3U A5G U25A A57G] | 0.18 |
| UAUCUGGGGGCCACAGCAGAAGCGAUCACGUCGCAGCCCCUGUCAGAUUCCGGUGAAUCUGCGGAUUCUGCUGUAUAUCUC [A3U A5U U25A U51C A64G] | 0.23 |
| UAUCAGGGGGCCCCAGUAGAAGCGCUCACGUCGCAGCCCCUGUCAGAUUCUGGUGAAUCUGCGAAUUCUGCUGUAUAUCCC [A3U A13C C17U U25C U80C] | 0.63 |

| Variant | self-cleavage |
| --- | --- |
| UAUCAGGGGGCCGCGGCAGAAGCGUUCGCGUCGCAGCCCCUGUCAGGUUCUGGAGAAUCUGCGAAUUCUGCUGUAUAUCUC [A3U A13G A15G A28G A47G U54A] | 0.39 |
| UAUCAGGGGGCCGCGGCAGAAGCGUUCACGUCGCAGCCUCUGUCAGAUUCUUGUGAAUCUGCGAAUUCUGCUGUAUAUCUC [A3U A13G A15G C39U G52U] | 0.37 |
| UAUCAGGGGGCCGCGGCAGAAGCGUACACGUCGCAGCCCCUGUCUGAUUCUGGUGAAUCCGCGAAUUCUGCAGUAUAUCUC [A3U A13G A15G U26A A45U U60C U72A] | 0.02 |
| UAUCAGGGGGCCGCUGCAGAAGCGUUCACGUCGCUGCCCCUGUCAGAUUCUGGUGAAUCUGCGGAUUCUGCUGUAUAUCUC [A3U A13G A15U A35U A64G] | 0.39 |
| UAUCAGGGGGCCGCAGCAGAAGCGUUCACGUCGCUGCCCCUGUCAGAUUCUGGUGAAUCUGCGAAUCCUGCUGUAUAUCUC [A3U A13G A35U U67C] | 0.33 |
| UAUCAGGGGGCCGCAGCAGAAGCGUUCACGUCGCAGCCCCUGUCAGAUUCUGGUGGAUCUGCGAAUUCUGUUGCAUACCUC [A3U A13G A56G C71U U74C U78C] | 0.56 |
| UAUCAGGGGGCCGCAGCAGAAGCGUUCAAGUCGCAGCCCCUGUCAGGUUCUGGUGAAUCUGCGAAUUCAGCCGUAUAUCCC [A3U A13G C29A A47G U69A U72C U80C] | 0.11 |
| UAUCAGGGGGCCGCAGCAGAAGCGUUCACGUCGCAGCACCCGUCAAAGUCUGGUGAAUCUGCGAACUCUGCUGUAUAUCUC [A3U A13G C38A U41C G46A U48G U66C] | 0.11 |
| UAUCAGGGGGCCGCAGCAGAAGCGUCCACGUCGCAGCCCCUGUCAGAUUCUGGUGAAUCUGCGAAUCCUGCUGUAUAUCUC [A3U A13G U26C U67C] | 0.24 |
| UAUCAGGGGGCCGCAGCAGAAGCGUUCACGUCGCAGCCCCAGUCAGAUUUUGGUGAAUCUGCGUAUUCCGCUGUAUAUCUC [A3U A13G U41A C50U A64U U69C] | 0.09 |
| UAUCAGGGGGCCGCAGCAGAAGCGUUCACGUCGCAGCCCCAGUCAGAUUCUGGUGAACCUGCGGAUUCUGCUGUACAUCUC [A3U A13G U41A U58C A64G U76C] | 0.16 |
| UAUCAGGGGGCCGCAGCAGAAGCGUUCACGUCGCAGCCCCUGUCAGAUUCUGGAGAAUCUGCGAGUUCUGCUGUAUAUCUC [A3U A13G U54A A65G] | 0.29 |
| UAUCAGGGGGCCUCCUCAGAAGCGCUCACGUCGCAGCCCCUGUCAGAUUCUGGUGAAUCUGCGAAUUCUGCUGUAUAUCUC [A3U A13U A15C G16U U25C] | 0.1 |
| UAUCAGGGGGCCUCAGCGGAAGCGUACACGUCGCAGCCCCUGUCAGAUUCUGGUGAGCCUGCGAAUUCUGCUGUAUAUCUC [A3U A13U A18G U26A A57G U58C] | 0.12 |
| UAUCAGGGGGCCUCAGCAGUAGCGUUCACGUCGCAGCCCCCGUCAGAUUCUGGUGAAUCUGCGAAUUCUGCUGUAUAUCUC [A3U A13U A20U U41C] | 0.48 |
| UAUCAGGGGGCCUCAGCAGAUGCCCUCACGUCGCAGCCCCUGUCAGAUUAUGGUGAAUCUGCGAAUUCUGCUGUAUAUCUC [A3U A13U A21U G24C U25C C50A] | 0.03 |
| UAUCAGGGGGCCUCAGCAGAAGCGUUCACGUCGCUGCCCCUGCCAGAUUCUGGUGAAUCUGCGAAUUCUGCUGUAUAUCUC [A3U A13U A35U U43C] | 0.53 |
